This note sets out measurements from PubChem BioAssay AID1745853 (National Center for Advancing Translational Sciences (NCATS), 2022).

Common to all, as to test: Primary Screen for Target Class Profiling of Small Molecule Inhibitors of Methyltransferases
Assay [1] deals with Glycine N-methyltransferase (Homo sapiens) (UniProt Q14749). To be noted: purified enzyme, MTase-Glo SAH luminescence; measured here: GNMT inhibition; at 40 µM; stronger effect = lower value. The procedure, abridged:
(§1)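 Each enzyme was assayed with SAM and its substrate. SAH formation detected by MTase-Glo luminescence; single-point 40 uM screen[…].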

For assay [2], the target named is Guanidinoacetate N-methyltransferase (Homo sapiens) (UniProt Q14353). The note with it: purified enzyme, MTase-Glo SAH luminescence; measured here: GAMT inhibition; at 40 µM; stronger effect = lower value. The essentials:
as §1

In assay [3] the target is Histamine N-methyltransferase (Homo sapiens) (UniProt P50135). To be noted: purified enzyme, MTase-Glo SAH luminescence; measured here: HNMT inhibition; at 40 µM; stronger effect = lower value. The essentials: as §1
The target of assay [4] is Nicotinamide N-methyltransferase (Homo sapiens) (UniProt P40261). The note with it: purified enzyme, MTase-Glo SAH luminescence; measured here: NNMT inhibition; at 40 µM; stronger effect = lower value. The procedure, abridged:
as §1

The target in assay [5] is Phenylethanolamine N-methyltransferase (Homo sapiens) (UniProt P11086). To be noted: purified enzyme, MTase-Glo SAH luminescence; measured here: PNMT inhibition; at 40 µM; stronger effect = lower value. The procedure, abridged: as §1

The other results are listed elsewhere or left out. Further columns of the screen follow, without active or inactive calls.
% is scaled to controls: 0 for no effect and ±100 for the full control effect.

Turning to `O=C(CCc1nnc2n(Cc3ccccc3Cl)c(=O)c3ccccc3n12)N1CC=C(c2ccccc2)CC1`, the activity change, negative = inhibition in assay [1] was -8.09%; in assay [2], 6.23%; in assay [3], 0.922%; in assay [4] it was -4.01%; in assay [5] it was -1.99%.
For `CN1c2cc(C(=O)NC3CCCCCC3)ccc2C(=O)N2CCCC21` (stereo not given), the activity change, negative = inhibition was -1.5% in assay [1]; -2.2% in assay [2]; -0.316% in assay [3]; -7.17% in assay [4]; 13.9% in assay [5].
For `Cc1nc(CCNc2cc(C3CC(O)C3)nc(N)n2)nc2c1CCC2` (stereo not given), in that order: -4.97%, -4.81%, -5.35%, -10.3% and -7.19%.
The corresponding values for `CCc1cnc(N2CCC(c3nc(COc4ccc(-n5cnnn5)cc4)cs3)CC2)nc1` are 1.88%, -3.07%, 11.4%, -22.5% and -3.24%.
Consider `Cc1ccccc1N1CCN(S(=O)(=O)C[C@]23CC[C@H](C[C@@H]2NC(=O)[C@@H](N)CCS(C)(=O)=O)C3(C)C)CC1`, for which the activity change, negative = inhibition in assay [1] was determined as 1.52%; in assay [3], 11.6%.
As for `Cc1cc2c(cc3n2CC(C)(C(=O)NC2CCCCCCC2)N(CCN2CCCC2)C3=O)o1` (stereo not given), the activity change, negative = inhibition was 2.34% in assay [1]; 0.529% in assay [2]; -5.21% in assay [3]; 6.42% in assay [4]; 2.79% in assay [5].
As for `C[C@@H]1O[C@@H](O[C@H]2[C@H](OC(=O)[C@]34CCC(C)(C)C[C@H]3C3=CCC5[C@@]6(C)C[C@H](O)[C@H](O[C@@H]7O[C@H](CO)[C@@H](O)[C@H](O)[C@H]7O)[C@@](C)(CO)C6[C@H](O)C[C@@]5(C)[C@]3(C)C[C@H]4O)OC[C@H](O)[C@@H]2O)[C@H](O)[C@H](O)[C@H]1O[C@@H]1OC[C@@H](O)[C@H](O[C@H]2OC[C@](O)(CO)[C@H]2O)[C@H]1O` (stereo not given in full), the activity change, negative = inhibition in assay [1] is 6.1%; in assay [2], 4.04%; in assay [3] it was 11%; in assay [4] it was -11%; in assay [5] it was 8.97%.
On to `CC(O)/C=C/C1C(C)C(O[C@@H]2O[C@H](CO)[C@@H](O)[C@H](O)[C@H]2O)C(O)CC1(C)C` (stereo not given in full), for which the activity change, negative = inhibition is 0.757% in assay [1]; 0.933% in assay [2]; 11% in assay [3]; -13.8% in assay [4]; -10.4% in assay [5].
The corresponding values for `CC1CCCCC1NC(=O)C1(C)Cn2c(nc3ccccc32)C(=O)N1Cc1ccc(F)cc1` (stereo not given) are -5.33%, 3.09%, -2.74%, -5.94% and -2.88%.
Turning to `Cc1nc([C@@H]2CN(C(=O)CCc3c[nH]c4ccccc34)C[C@H]2C(N)=O)n[nH]1`, the activity change, negative = inhibition was -3.41% in assay [1]; -6.45% in assay [2]; -1.56% in assay [3]; -9.76% in assay [4]; -6.08% in assay [5].
As for `NC[C@H](O)c1ccc(O)c(O)c1`, the activity change, negative = inhibition in assay [1] is -55%; in assay [2], 4.54%; in assay [3] it was 3.12%; in assay [4], -13.5%; in assay [5] it was 24.2%.
With `Cc1ccc(C)c(NC(=O)Cn2c(=O)oc3cc(S(=O)(=O)NCc4ccccc4)ccc32)c1`, the activity change, negative = inhibition was determined as 2.25% in assay [1]; 1.5% in assay [2]; 9.2% in assay [3]; 9.24% in assay [4]; 2.68% in assay [5].
As for `O[C@@H]1C[C@@H](c2nc(-c3ccccn3)no2)N(Cc2cc3ccccc3o2)C1`, the activity change, negative = inhibition was -8.69% in assay [1]; -9.55% in assay [2]; -4.15% in assay [3]; -22.4% in assay [4]; -10.2% in assay [5].
With `CC#CCn1c(N2CCC[C@@H](N)C2)nc2c1c(=O)n(Cc1nc(C)c3ccccc3n1)c(=O)n2C`, the figures for the activity change, negative = inhibition in assay [2], in assay [4] and in assay [5] were 5.54%, -10.4% and 3.73%, respectively.
With `CN(C)Cc1cc(CC2(NCc3cccc4c3OCO4)COC2)no1`, the activity change, negative = inhibition in assay [1] was -6.78%; in assay [2], -4.67%; in assay [3] it was -1.2%; in assay [4], -15.4%; in assay [5], -5.12%.
For `Cc1ccccc1CN1C(=O)c2cc3sccc3n2CC1(C)C(=O)NC1CCC(C)CC1` (stereo not given), in that order: -1.13%, -0.076%, -6.22%, -5.58% and -8.48%.
On to `Cc1cc(=O)n(CC(=O)N2CCCC(C)(c3ccccc3)C2)nc1C` (stereo not given), for which the activity change, negative = inhibition in assay [1] is -5.64%; in assay [2] it was -9.82%; in assay [3], -2.54%; in assay [4], -12.4%; in assay [5] it was -7.1%.
For `CC1(C(=O)NC2CCCCC2)Cn2c(ccc2-c2ccco2)C(=O)N1CCN1CCOCC1` (stereo not given), in that order: 0.411%, 2.45%, 6.85%, 5.74% and 1.18%.
`CCCn1c(=O)c2ccc(Cl)cc2n2c(SCc3ccccc3)nnc12`: the activity change, negative = inhibition in assay [1] is -2.12%; in assay [2] it was -0.985%; in assay [3] it was -1.35%; in assay [4], -4.32%; in assay [5], -4.54%.
For `COc1ccc(-c2cc3n(n2)CC(C)(C(=O)NCc2ccccc2)N(c2cc(Cl)ccc2C)C3=O)cc1` (stereo not given), in that order: 4.96%, 6.09%, 10.2%, 10.2% and 2.72%.
The corresponding values for `O=c1cc(CN2CCCC(c3nccn3Cc3ccccc3)C2)[nH]c(=O)[nH]1` (stereo not given) are -7.02%, -4.98%, -19.5%, -5.9% and -5.86%.
`Cc1ccc(C(=O)Cn2nc3n(CC(C)C)c(=O)c4ccc(C(=O)NC(C)C)cc4n3c2=O)cc1`: the activity change, negative = inhibition in assay [1] was 3.44%; in assay [2], 3.08%; in assay [3], 4.97%; in assay [4], -6.44%; in assay [5], 0.194%.
Regarding `COCCn1cnnc1C(C)NC(=O)CCc1nc(-c2ccccc2OC)no1` (stereo not given), the activity change, negative = inhibition in assay [1] was -2.56%; in assay [2] it was -3.77%; in assay [3], -0.859%; in assay [4], -7.58%; in assay [5], -3.31%.
Take `CC1(C(=O)NCc2ccccc2)Cn2nc(-c3ccccc3)cc2C(=O)N1CCc1ccc(Cl)cc1` (stereo not given): the activity change, negative = inhibition in assay [1] was determined as 6.12%; in assay [2], 0.228%; in assay [3], 6.25%; in assay [4], 9.18%; in assay [5] it was 3.26%.
For `CC(C)Oc1ccc(CNC(=O)c2cc3n(n2)CC(C)(C(=O)NC2CCCCC2)N(C)C3=O)cc1` (stereo not given), in that order: -4.61%, -6.43%, 6.25%, -4.02% and -5.92%.
The corresponding values for `COc1ccc(Oc2c(Cl)cnn(C3c4ccccc4-c4ccccc43)c2=O)cc1` are -3.55%, -27%, -2.58%, -32.9% and -4.22%.
For `CN(CCCN1C(=O)c2cc3occc3n2CC1(C)C(=O)NC1CCCCCC1)C1CCCCC1` (stereo not given), in that order: -10.1%, 1.31%, -9.65%, -1.01% and -6.86%.
Take `Cn1cncc1C(=O)N1CCC2(CC1)CNC(C(=O)O)C2` (stereo not given): the activity change, negative = inhibition was -0.747% in assay [1]; -4.6% in assay [2]; 0.346% in assay [3]; -5.57% in assay [4]; -0.155% in assay [5].
The corresponding values for `CC(C)CNC(=O)c1ccc2c(=O)n(C(C)C)c3nn(CC(=O)Nc4ccccc4)c(=O)n3c2c1` are 3.67%, 2.12%, 7.86%, 5.66% and 9.27%.
